# Experimental data: paper PMC12136788
# The other results are listed elsewhere or left out.
# B1: ENSG00000107863:be:win_4001|CDS|ENSG00000107863|bound_else_gene|NA|bound_elsewhere_windowed (ssRNA)
# RNA: GGGAGUUCUACAGUCCGACGAUCACCAUGACUGGUUUUUCACAGAAGAAGGUGCUGAAGAGCCUCUUACAACAGUGCAGGAGGAAAGCACAGUAGACUCCCAGCCAGUGCCAAACAUAGAUCAUUUACUCACCAACAUUGGAACAACAGAGGAUUGAGCAUCA
# B2: ENSG00000177426:stop:overlap|stop_codon|ENSG00000177426|stop_codon|NA|stop_codon (ssRNA)
# RNA: GGGAGUUCUACAGUCCGACGAUCCUCAAAGACAGAAGGAAUAUCUUUUUAUUGUAAACUUGAUAGUGUUAAAAGCUAAUAACUAGCUAUUUAGAGAACACAGAAACACUUGACAGUCAUCUAUCAGAUAGCAUUUCCUUUAAUCAACAGAGGAUUGAGCAUCA
# B3: chr20:58910839:58911044:+|3pUTR|ENSG00000087460|msi1_unk|total|mutant (ssRNA)
# RNA: GGGAGUUCUACAGUCCGACGAUCCCUUAAGCACAAUUAAUUAAAAGUGAAACGUAAUUGUACAAGCAGUUAAUCACCCACCACCGGGCAUGAUUAACAAAGCAACCUUUCCCUUCCCCCGAGUGAUUUUGCGAAACCCCCUUUCAACAGAGGAUUGAGCAUCA
# B4: chr8:76866408:76866523:+|3pUTR|ENSG00000091656|unk|total|mutant (ssRNA)
# RNA: GGGAGUUCUACAGUCCGACGAUCUAUUCUAUACAUUUUAUGUGAACUUUUUUAAUGUCUUUAAUUUGGAUUUUUUUUUUUUUCCGUAUUUUAACAUUUAUUUUAAUCCUGAAGACACUUUUUUGAUUGUGUUUCGUAAGAGACCAACAGAGGAUUGAGCAUCA
# B5: chr10:91841327:91841437:+|CDS|ENSG00000107854|unk|total|mutant (ssRNA)
# RNA: GGGAGUUCUACAGUCCGACGAUCUUCUUAUGGACAUUAUGAAGUUGCAGAACUUCUUGUUAAACAUGGAGCAGCCGUUAAUGCCGCUGAUUUAUGGAAAUUUACACCUUUACAUGAAGCAGCAGCAAAAGGAAAAUAUGAAAUCAACAGAGGAUUGAGCAUCA
# B6: ENSG00000105953:stop:overlap|stop_codon|ENSG00000105953|stop_codon|NA|stop_codon (ssRNA)
# RNA: GGGAGUUCUACAGUCCGACGAUCCGGAGCUGCAGCGCCUCCUGGACACGGCCUUCGACCUGGACGUCUUCAAGAACUUCUCGUAGAUGCUGCCUAGGGUUGCUUGGGCCACUGCCCUCUCCACACCCAUGACUGCCCCUUGCUCAACAGAGGAUUGAGCAUCA
# B7: ENSG00000136451:be:win_2101|3pUTR|ENSG00000136451|bound_else_gene|NA|bound_elsewhere_windowed (ssRNA)
# RNA: GGGAGUUCUACAGUCCGACGAUCAUGUUAAUUUCAGGCAGCAUUCCCUAUGGGAAAGGUGAUACCAGCUCUGAUAUGCAAAGCAUAUGAUAAUUUAUCAUUCUAACUUCAACGUAUAAUAGGGAUUGUGACCUGAUAUUUGGACAACAGAGGAUUGAGCAUCA
# B8: chr12:13083531:13085147:-|three_prime_utr|ENSG00000111305|control|control|control (ssRNA)
# RNA: GGGAGUUCUACAGUCCGACGAUCUCCGAGCUGCGGAACAAGGGAUUUCAAAGAGGGGCCAGCCAGGAGCUGAAAGAAGCAGUUAGGUCAUCUGUAGAGGAAGAGCAGUGUUAGGAGUUAAGCGGGUUUGGGGAGUAGGCUUGACAACAGAGGAUUGAGCAUCA
# B9: chr19:48404743:48404844:+|CDS|ENSG00000105464|unk|FALSE|unique (ssRNA)
# RNA: GGGAGUUCUACAGUCCGACGAUCCGAGCAACAGCUUCAGGUCAUCUUUGAGGUGCUGGAGGAGUAUGACUGGACGUCCUUUGUAGCCGUGACCACUCGUGCCCCUGGCCACCGGGCCUUCCUGUCCUACAUUGAGGUGCUGACCAACAGAGGAUUGAGCAUCA
# B10: chr12:68660398:68660499:+|3pUTR|ENSG00000127314|msi1|FALSE|unique (ssRNA)
# RNA: GGGAGUUCUACAGUCCGACGAUCUUGAGGUGGCCAAAUGUAAACUAAAAGCCUUAAUUAAAGUGGUGCAAUUUUGUAUAACUUAGCAUCAGUAGUUCAAUAAAUUUGGAUUGCCAUGCAAGGGCUUGCAUUAUAAUUACUUGCCAACAGAGGAUUGAGCAUCA
# B11: chr5:136976780:136976881:-|3pUTR|ENSG00000152377|msi1|FALSE|unique (ssRNA)
# RNA: GGGAGUUCUACAGUCCGACGAUCCUUAAAUUAGCAUGUUCCAAUCCAGUCGGCAUUGCCUGAAUACAGUAGCAUCAUACCUAUAGUUGGUCUUAGAUAAGAAAUGAACUACUUGAUAUAGCAAAGUCCUUUGGCUUCGUAAAUCAACAGAGGAUUGAGCAUCA
# B12: chr9:101390585:101390694:-|CDS|ENSG00000136897|unk|total|mutant (ssRNA)
# RNA: GGGAGUUCUACAGUCCGACGAUCUAAUUGGCAAGACAUCUCCCUGGAAGACCGUCGUCUAAAGUUCAAUCUUCUGGCUCAUUCCGCUGAUGACUUGGGUCAUGCCGUCCCUAACUCCAGACUCCACCAGAUGUGCAGGGUCCGCAACAGAGGAUUGAGCAUCA
# B13: chr17:75064992:75065093:+|3pUTR|ENSG00000180901|msi1|total|mutant (ssRNA)
# RNA: GGGAGUUCUACAGUCCGACGAUCAGGCGCUUGUCCCUGUCUGCUUUCCUGGGGCAUGCCUGAUCAGCGUGGGCUGGAGCUCCCCGACCAACCCCAGCUUUCUCACCAGGUUCAGCAAGGAGGCCUGGGGGUCAGACACCAAUGCAACAGAGGAUUGAGCAUCA
# B14: chr1:9729969:9730061:-|3pUTR|ENSG00000171603|msi1_unk|FALSE|overlapping (ssRNA)
# RNA: GGGAGUUCUACAGUCCGACGAUCGUUUUUAUUUUUUCCAAACUAGUGCAUGUAUAAAUAAUGGCAGGAUGGGGGGUACUGUGUAGAUGAUUAACUGACUUUUUAAUAUUUUGUAAAUAAAUCGGAUUCCUUGUGUCCUUUGUGCAACAGAGGAUUGAGCAUCA
# Target: MSI1 full-length (mouse, UniProt Q61474 1-362)
# Test: nsRBNS (natural sequence RNA bind-n-seq); RBNS binding buffer (assumed for nsRBNS): 25 mM Tris pH 7.5, 150 mM KCl, 3 mM MgCl2, 0.01% Triton X-100, 500 ug/ml BSA, 20 U/ml SUPERase-In, 4 C; UNK is unkempt and MSI1 is Musashi-1; names of the RNAs are library labels; protein concentration not given here; high values mean tight binding
# Chain of UniProt Q61474 (Q61474 whole entry): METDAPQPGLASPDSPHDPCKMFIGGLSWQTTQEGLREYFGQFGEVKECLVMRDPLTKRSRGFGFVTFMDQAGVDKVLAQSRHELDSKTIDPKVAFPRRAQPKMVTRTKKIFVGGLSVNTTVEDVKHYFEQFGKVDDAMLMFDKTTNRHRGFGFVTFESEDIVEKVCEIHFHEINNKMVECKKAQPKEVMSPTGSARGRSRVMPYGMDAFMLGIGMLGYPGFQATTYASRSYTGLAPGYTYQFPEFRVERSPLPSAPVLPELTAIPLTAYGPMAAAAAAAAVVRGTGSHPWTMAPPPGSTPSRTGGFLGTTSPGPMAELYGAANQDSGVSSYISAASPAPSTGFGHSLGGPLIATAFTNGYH
row,Binder,binding signal [enrichment R]
1,B1,1.02
2,B2,0.812
3,B3,0.782
4,B4,2.46
5,B5,0.37
6,B6,0.678
7,B7,0.213
8,B8,1.27
9,B9,0.216
10,B10,0.545
11,B11,71.2
12,B12,0.406
13,B13,0.545
14,B14,5.12
